Test results reported in the supplement of paper PMC9334596.
Several values for one entry are separate records, joined by “and”; a condition that tells them apart may be missing. Identical values can stand only once. Whole data set: some 5,300 compounds, median “PER2::LUC luminescence relative to vehicle control” near 0.96, cut for the highest 2% near 1.3. This is one part of the list.

System: mPer2Luc MEF
Test: PER2::LUC luminescence relative to vehicle control (fold of vehicle); higher = higher PER2::LUC reporter signal
Conditions: 10 µM
Outline: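 Compounds from commercial libraries were added at 10 μM to 384-well plates seeded 48 h earlier with ~3000 mPer2Luc mouse embryonic fibroblasts per well. The cells were kept in DMEM with 10% FBS at 37 °C and 5% CO2. Luminescence was read with ONE-Glo 24 h and 30 h after treatment, then an alamarBlue viability assay was run. Values are PER2::LUC luminescence relative to vehicle control, as fold change.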

Row | Compound | PER2::LUC luminescence (time after treatment 24 h) | PER2::LUC luminescence (time after treatment 30 h)
1 | C[C@H](NC(c1cccc2nc(O)c(O)nc12)P(=O)(O)O)c1ccc(Br)cc1 (stereo partly drawn) | 1.03 | 0.937
2 | Oc1ccc(Cl)c2c1CCC2 | 0.846 | 1.05
3 | Cc1[nH]c(=O)c(C#N)cc1-c1ccncc1 | 1.2 | 1.11
4 | CC(C)[C@H](CO)Nc1nc(Nc2cccc(Cl)c2)c2ncn(C(C)C)c2n1 | 0.304 | 0.37
5 | C#C[C@]1(O)CC[C@H]2[C@@H]3CCc4cc(OC5CCCC5)ccc4[C@H]3CC[C@@]21C | 1.19 | 0.911
6 | CN(C)CCC=C1c2ccccc2CCc2ccccc21 | 0.836 | 0.626
7 | Cc1ccnc2c1NC(=O)c1cccnc1N2C1CC1 | 0.981 and 0.667 | 0.971 and 1.02
8 | CN(CCc1ccc(Cl)c(Cl)c1)CCN1CCCC1 | 0.943 | 0.866
9 | COc1cc(Cc2cnc(N)nc2N)cc(OC)c1OC | 1.05 | 1.09
10 | NC(=O)C(=O)O | 1.12 | 1.11
11 | CN(C(=O)c1ccc(F)cc1C(F)(F)F)C1CCN(c2nnc(-c3ccnn3C)c3ccccc23)CC1 | 1.07 | 0.916
12 | FC(F)(F)c1cc(COC2CCCNC2c2ccccc2)cc(C(F)(F)F)c1 (stereo not drawn) | 0.914 | 0.875
13 | COc1cc2c(cc1OC)CN(CCc1ccc(NC(=O)c3cc(OC)c(OC)cc3NC(=O)c3cnc4ccccc4c3)cc1)CC2 | 0.998 and 0.571 | 1.06 and 0.586
14 | C=C1C[C@@]23CC[C@H]4[C@@](C)(CCC[C@@]4(C)C(=O)O[C@@H]4O[C@H](CO)[C@@H](O)[C@H](O)[C@H]4O)[C@@H]2CC[C@]1(O[C@@H]1O[C@H](CO)[C@@H](O)[C@H](O)[C@H]1O[C@@H]1O[C@H](CO)[C@@H](O)[C@H](O)[C@H]1O)C3 | 1.13 | 0.945
15 | CN(C)c1cc2c(Nc3ccc4c(cnn4Cc4ccccc4)c3)ncnc2cn1 | 0.858 | 0.96
16 | CCN(CC)CCOC(=O)C(c1ccccc1)C1CCCCC1 (stereo not drawn) | 0.692 | 0.864
17 | COCC1=C(C(=O)OC(C)OC(=O)OC(C)C)N2C(=O)[C@@H](NC(=O)/C(=N\OC)c3csc(N)n3)[C@H]2SC1 (stereo partly drawn) | 1.03 | 1.06
18 | Cc1cc(N2CCCCC2)nc2ccccc12 | 1.03 | 1.08
19 | NS(=O)(=O)c1cccc2c1c([N+](=O)[O-])cc1nc(O)c(O)nc12 | 1.12 | 1.19
20 | N#CC(=C(/N)Sc1ccccc1N)/C(C#N)=C(/N)Sc1ccccc1N | 1.26 | 1.18
21 | O=C1NCCSc2c1sc1ccc(O)cc21 | 1.01 | 0.824

Row | Compound | PER2::LUC luminescence (time after treatment 24 h) | PER2::LUC luminescence (time after treatment 30 h)
22 | COc1cc2c(cc1OC)C(=O)C(CC1CCN(Cc3ccccc3)CC1)C2 (stereo not drawn) | 0.714 and 0.831 | 0.963 and 0.819
23 | CCCCC(CC)CN1CN(CC(CC)CCCC)CC(C)(N)C1 (stereo not drawn) | 0.916 | 1.11
24 | NC(N)=NCc1cccc(I)c1 | 0.952 | 1.2
25 | CC(C)CCCC(C)C1CCC2C3CCC4CCCCC4(C)C3CCC12C (stereo not drawn) | 0.984 | 0.961
26 | CNCC[C@H](Oc1cccc2ccccc12)c1cccs1 | 0.759 and 0.596 | 0.799 and 0.57
27 | COc1ccc(S(=O)(=O)Nc2nc(-c3cccc([N+](=O)[O-])c3)cs2)cc1OC | 1.08 | 1.04
28 | O=C(CCCN1CCC(O)(c2ccc(Br)cc2)CC1)c1ccc(F)cc1 | 0.788 | 0.75
29 | C[C@@H](Oc1cc(-n2cnc3ccc(CN4CCN(C)CC4)cc32)sc1C(N)=O)c1ccccc1C(F)(F)F | 0.284 | 0.335
30 | COc1ccccc1-c1cc(Nc2cccc(CS(N)(=O)=O)c2)ncn1 | 0.703 | 1.05
31 | CC1(COc2ccc3c(c2)ncn3-c2ccc3cccc(N4CCC(N)CC4)c3n2)COC1 | 0.348 | 0.637
32 | CO[C@@]1(NC(=O)Cc2cccs2)C(=O)N2C(C(=O)O)=C(COC(N)=O)CS[C@@H]21 | 0.931 | 1.18
33 | CC(=O)c1ccc2c(c1)N(CCCN1CCC(CCO)CC1)c1ccccc1S2 | 0.531 | 0.554
34 | O=[N+]([O-])c1cccc2c(Br)[nH]nc12 | 0.967 | 1.01
35 | CN(C)C(=O)COC(=O)Cc1ccc(OC(=O)c2ccc(NC(=N)N)cc2)cc1 | 1.09 | 1.04
36 | COc1ccc(Cc2cnc(N)nc2N)cc1OC | 0.864 | 0.938
37 | O=C(O)CCC(=O)N1CCC[C@H]1C(=O)O | 0.796 | 0.741
38 | N=C(N)NC(=O)c1nc(Cl)c(N)nc1N | 1.32 | 1.12
39 | CC(C)NCC(O)c1ccc(NS(C)(=O)=O)cc1 (racemic) | 1.1 and 1.04 | 0.786 and 0.824
40 | Nc1ccccc1NC(=O)c1ccc(CNC(=O)OCc2cccnc2)cc1 | 0.568 | 0.633
41 | CCOc1ccc(C(=O)c2ccc(OC)c(O)c2O)cc1 | 0.983 | 0.916
42 | O=C1NCN(c2ccccc2)C12CCN(CCCC(c1ccc(F)cc1)c1ccc(F)cc1)CC2 | 0.912 | 0.844

Row | Compound | PER2::LUC luminescence (time after treatment 24 h) | PER2::LUC luminescence (time after treatment 30 h)
43 | COc1cccc(OC)c1OCCNCC1COc2ccccc2O1 (stereo not drawn) | 0.989 and 0.937 | 0.933 and 0.962
44 | CCCC[S+]([O-])c1sc2nc(-c3cccs3)cc(-c3ccccc3)c2c1N (stereo not drawn) | 0.864 | 0.882
45 | CCCCOc1c(C(=O)c2c(F)cc(C)cc2F)c[nH]c2nncc1-2 | 0.643 | 0.792
46 | CC[C@H]1OC(=O)[C@H](C)[C@@H](O[C@H]2C[C@@](C)(OC)[C@@H](O)[C@H](C)O2)[C@H](C)[C@@H](O[C@@H]2O[C@H](C)C[C@H](N(C)C)[C@H]2O)[C@](C)(OC)C[C@@H](C)C(=O)[C@H](C)[C@@H](O)[C@]1(C)O | 0.914 | 0.874
47 | Nc1ccc(-c2ccc3ccccc3n2)cc1 | 1.74 | 1.29
48 | O=[N+]([O-])c1ccc2c(c1)S(=O)(=O)C=C2 | 1.15 | 1.14
49 | N[C@@H]1CCCCN(c2c(F)cc3c(=O)c(C(=O)O)cn(C4CC4)c3c2Cl)C1 | 0.831 | 0.902
50 | CC(C)COC(=O)OCN1C(=O)CN(CCN2CC(=O)N(COC(=O)OCC(C)C)C(=O)C2)CC1=O | 1.12 | 0.875
51 | CCCCC1=NC2(CCCC2)C(=O)N1Cc1ccc(-c2ccccc2-c2nnn[nH]2)cc1 | 1.17 | 0.755
52 | O=C(Nc1nc2ccccc2n1CCN1CCOCC1)c1cccc([N+](=O)[O-])c1 | 1.36 | 1.18
53 | CN(C)CC[C@H](CSc1ccccc1)Nc1ccc(S(=O)(=O)NC(=O)c2ccc(N3CCN(Cc4ccccc4-c4ccc(Cl)cc4)CC3)cc2)cc1[N+](=O)[O-] | 0.732 | 0.732
54 | CC(=O)SCC[N+](C)(C)C | 1.08 | 1.17
55 | C[C@H]1COC2=C1C(=O)C(=O)c1c2ccc2c1CCCC2(C)C | 0.717 | 0.946
56 | NC(=O)Cc1cccc(C(=O)c2ccccc2)c1N | 1.23 | 1.14
57 | O=C(Nc1ccc(C(=O)O)c(O)c1)c1ccccc1 | 1.03 | 1.13
58 | CCCCOC(=O)c1ccc(N)cc1 | 1.06 and 1.09 | 1.28 and 1.2
59 | CCCCC[C@H](O)/C=C/[C@H]1C=CC(=O)[C@@H]1CCCCCCC(=O)O | 0.865 | 0.955
60 | CCOC(=O)[C@H](CCc1ccccc1)N[C@@H](C)C(=O)N1[C@H](C(=O)O)C[C@@H]2CCC[C@@H]21 | 1.09 | 1.27
61 | C#CCCCCCCCCCCCC(O)CC(O)CO.C=CCCCCCCCCCCCC(O)CC(O)CO (stereo not drawn) | 0.92 | 0.927
62 | CCOc1ccc2c(c1)C(C)=CC(C)(C)N2 | 0.955 | 1.04
63 | NC(=O)c1ncn([C@@H]2O[C@H](CO)[C@@H](O)[C@H]2O)n1 | 1.19 | 1.15

Row | Compound | PER2::LUC luminescence (time after treatment 24 h) | PER2::LUC luminescence (time after treatment 30 h)
64 | CCC(CCC(C)C1CCC2C3CCC4CC(O)CCC4(C)C3CCC12C)C(C)C (stereo not drawn) | 0.958 | 0.938
65 | CC(C)COCC(CN(Cc1ccccc1)c1ccccc1)N1CCCC1 (stereo not drawn) | 0.856 | 0.724
66 | CCN(Cc1ccccc1)C(=O)Cn1c(=O)n(C)c2cnc(-c3ccccc3)nc21 | 0.912 | 0.946
67 | Cc1cc(OCC(=O)O)cc(C)c1Cc1ccc(O)c(C(C)C)c1 | 1.11 | 1.05
68 | Cc1ccc(S(=O)(=O)n2c(N)nc3ccccc32)cc1 | 1.13 | 1.16
69 | Cn1c(=O)c2[nH]c(C3CCCC3)nc2n(C)c1=O | 0.982 | 0.839
70 | CNC(=O)c1ccc(-c2cnc3ncc(Cc4ccc5ncccc5c4)n3n2)cc1F | 1.2 | 1.09
71 | CC1=CC2C(C(C)C)CCC(C)(O)C2CC1 (stereo not drawn) | 1.18 | 1.08
72 | NCC(=O)Nc1ccc(-n2nc(C(F)(F)F)cc2-c2ccc3c(ccc4ccccc43)c2)cc1 | 0.522 | 0.679
73 | COc1cc2c(cc1OC(C)C)[C@H](c1ccc(Cl)cc1)N(c1ccc(N(C)C[C@H]3CC[C@H](N4CCN(C)C(=O)C4)CC3)cc1)C(=O)C2 | 0.766 | 0.564
74 | O=C1CCC(c2ccccc2)(C2CCN(Cc3ccccc3)CC2)C(=O)N1 (stereo not drawn) | 0.825 | 0.82
75 | CCC(Oc1ccc(Cl)cc1)C(=O)O[C@]12CCC[C@H](CC1)N2C (mixture of isomers) | 0.79 | 0.86
76 | CC12CCC3c4ccc(O)cc4CCC3C1CCC2O (stereo not drawn) | 0.721 | 0.751
77 | CN[C@H](CC(C)C)C(=O)N[C@H]1C(=O)N[C@@H](CC(N)=O)C(=O)N[C@H]2C(=O)N[C@H]3C(=O)N[C@H](C(=O)N[C@H](C(=O)O)c4cc(O)cc(O)c4-c4cc3ccc4O)[C@H](O)c3ccc(c(Cl)c3)Oc3cc2cc(c3O[C@@H]2O[C@H](CO)[C@@H](O)[C@H](O)[C@H]2O[C@H]2C[C@](C)(N)[C@H](O)[C@H](C)O2)Oc2ccc(cc2Cl)[C@H]1O | 0.526 | 1
78 | O=C(CCCl)NCc1ccccc1 | 1.13 | 1.02
79 | CNS(=O)(=O)Cc1ccc2[nH]cc(CCN(C)C)c2c1 | 1.03 | 1.09
80 | O=c1c(O)c(-c2ccc(O)c(O)c2)oc2cc(O)ccc12 | 0.969 | 0.926
81 | O=C(COc1ccc(Cl)cc1)NC1CCC(NC(=O)COc2ccc(Cl)cc2)CC1 (stereo not drawn) | 1.08 | 0.94
82 | COc1cc2ncnc(Oc3cccc(NC(=O)Nc4cc(C(C)(C)C(F)(F)F)on4)c3)c2cc1OC | 1.02 | 1.2
83 | COc1ccc(-c2cnc3c(-c4cccc5ncccc45)cnn3c2)cc1 | 1.06 | 1.16
84 | NS(=O)(=O)c1cc2c(cc1Cl)N=CNS2(=O)=O | 1.03 | 1.03
